Measured values: PubChem BioAssay AID2451 (National Center for Advancing Translational Sciences (NCATS), 2010)
Several values for one entry are separate records, joined by “and”; a condition that tells them apart may be missing. Equal entries are not always repeated. In all, about 290,000 compounds went through this assay and about 2,100 (0.72%) were called active. Inconclusive results, whose numbers are uncertain, are shown with a selection of clear calls. Calls come from the whole dose curve; as a rule, active = well fitted inhibition curve with a large enough effect; inconclusive = small, poorly fitted or top-dose-only effect, or effect the other way; inactive = flat fitted curve, though single readings scatter. A potency beside an inconclusive call is a rough fit, not a confirmed value.

These compounds were tested against Fructose-bisphosphate aldolase (Giardia intestinalis (strain ATCC 50803 / WB clone C6)) (UniProt A8B2U2) (assay: qHTS Assay for Inhibitors of Fructose-1,6-bisphosphate Aldolase from Giardia Lamblia). Details: purified Giardia FBPA; series mostly up to 59.6 µM.
How it was run: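 Giardia FBPA (40 nM reagent) was preincubated 10 min at RT with compound (up to 57.5 uM final), then substrate plus GAPDH/TPI/NAD/arsenate coupling system with diaphorase/resazurin was added; resorufin fluorescence (525/598 nm) was read after 20 min.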
Note: nearly all actives have a fitted effect of over 55% in size.
Potency is the fitted concentration of half-maximal effect; tags give direction and shape of the fitted curve.

Chain of UniProt A8B2U2 (A8B2U2 whole entry, looked up): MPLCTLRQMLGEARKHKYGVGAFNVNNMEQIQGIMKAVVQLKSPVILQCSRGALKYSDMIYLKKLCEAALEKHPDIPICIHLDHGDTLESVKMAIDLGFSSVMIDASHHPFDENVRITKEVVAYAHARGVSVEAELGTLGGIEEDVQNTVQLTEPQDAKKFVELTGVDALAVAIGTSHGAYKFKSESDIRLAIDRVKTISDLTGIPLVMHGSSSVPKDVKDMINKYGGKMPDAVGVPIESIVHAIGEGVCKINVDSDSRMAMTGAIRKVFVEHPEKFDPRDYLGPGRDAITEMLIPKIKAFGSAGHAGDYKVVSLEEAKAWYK

Compound | Potency
Cc1cc(=O)n(CC(C)O)c(O)c1C#N (stereo not given) | inconclusive: 2.51 µM [inhibitor, partial curve]
O=C(NNc1ccccc1[N+](=O)[O-])Nc1ccc(Cl)c(Cl)c1 | inactive
COC(=O)c1sccc1N/N=C/c1cccc(Oc2ccccc2)c1 | inactive
O=C(Cc1cccs1)N/N=C/c1ccccn1 | inconclusive: 17.7 µM [inhibitor, partial curve]
CC(C)CN1CC[C@@]2(CCCN(C(=O)c3ccco3)C2)C1 | inactive
CCN1C(=O)[C@@H]2[C@H]3C(=CC[C@@H]2C1=O)C1(OCCCO1)[C@H]1O[C@@H]1[C@H]3O | inconclusive: 2.51 µM [inhibitor, partial curve]
CC(C)(C)c1ccc(C[C@H](C(=O)O)N2C(=O)c3ccc(C(=O)O)cc3C2=O)cc1 | inconclusive: 17.7 µM [activator, single point]
Cc1cc(C)c2cc3c(N)c(C(=O)Nc4c(C)[nH]c(=O)[nH]c4=O)sc3nc2c1 | inconclusive: 31.5 µM [inhibitor, single point]
N#C/C(=C\c1ccc(O)c(O)c1)C(=O)N1CCCC1 | inconclusive: 15.8 µM [inhibitor, partial curve]
COc1ccc(NC(=O)c2cccc(S(=O)(=O)N3CCc4ccccc43)c2)cn1 | inconclusive: 25.1 µM [inhibitor, single point]
CCN1CCN(CC(O)COC(c2ccccc2)c2ccccc2C)CC1 (stereo not given) | inconclusive: 12.6 µM [inhibitor, partial curve]
Cc1cc(-c2n[nH]c(=S)n2/N=C/c2ccco2)n[nH]1 | inconclusive: 17.7 µM [inhibitor, partial curve]
CC1(C)CC2C1CCC1(C)OC1CCC2(C)O (stereo not given) | inactive
NC(N)=NS(=O)(=O)c1ccc(NC(=S)NC(=O)c2sc3ccccc3c2Cl)cc1 | inconclusive: 7.92 µM [inhibitor, partial curve]
O[N+]1=CC=CCC1=S.On1ccccc1=S.[Zn] | active: 0.5 µM
COC(=O)CCC(=O)OC1(C)C(=O)C=C2C=C(C3CC3)N(CC3CC3)C=C2C1=O (stereo not given) | inconclusive: 500 nM [inhibitor, full curve] and inconclusive: 141 nM [inhibitor, full curve]
c1ccc(-c2ccccc2OCCOCCN2CCNCC2)cc1 | active: 19.9 µM
Cc1oc(-c2cc(F)cc(F)c2)nc1CN1CCN(C(=O)c2ccco2)CC1 | inactive
CC(=O)c1ccc(N2CCN(C(=O)c3cccs3)CC2)c(F)c1 | inactive
Cc1nc(SCc2ccc(C(=O)O)cc2)c2c(C)c(C)sc2n1 | inconclusive: 15.8 µM [activator, single point]
COc1ccc(/C=N/NC2=NS(=O)(=O)c3ccccc32)cc1OC | active: 10 µM
Cc1ccc(C23CC4CC(CC(C(=O)NC(C)C(=O)O)(C4)C2)C3)cc1 (stereo not given) | inactive
CC(=NC1CCCCC1)C1=C(O)c2ccccc2C1=O | inconclusive: 19.9 µM [inhibitor, partial curve]

Compound | Potency
CC1(OC(=O)C2CCCC2)C(=O)C=C2C=C(c3ccsc3)N(C3CCCCC3)C=C2C1=O (stereo not given) | inconclusive: 397 nM [inhibitor, full curve] and inconclusive: 500 nM [inhibitor, full curve]
O=C(CSc1n[nH]c(-c2cccs2)n1)NCc1ccc2c(c1)OCO2 | inconclusive: 17.7 µM [inhibitor, single point]
COC(=O)c1c(NC(=O)/C=C/C(=O)O)sc(C)c1-c1ccc(C)c(C)c1 | inconclusive: 15.8 µM [activator, single point]
Cc1ccc(/C=C2/C(=O)c3ccc(C(=O)O)cc3C2=O)o1 | inconclusive: 19.9 µM [inhibitor, partial curve]
COc1ccc(CNC(=O)[C@H](Cc2c[nH]c3ccccc23)NC(=O)[C@@H]2Cc3ccccc3CN2)cc1 | inconclusive: 31.6 µM [inhibitor, single point]
CCc1ccccc1N1CSC2=C(C#N)C(c3ccccc3F)CC(=O)N2C1 (stereo not given) | active: 6.29 µM
c1ccc(CNC2=NCCC2)nc1 | inactive
COc1cc(NC2c3ccccc3C(=O)N2c2cc(C)ccn2)cc(OC)c1OC (stereo not given) | inconclusive: 15.8 µM [inhibitor, single point]
CC(C(=O)NC1C(=O)N2C(C(=O)O)=C(CSc3nnnn3C)CSC12)n1cc(Br)cn1 (stereo not given) | inconclusive: 17.7 µM [inhibitor, single point]
Cc1cc(=O)cc2oc3cc(N)c(-c4c(C)cc(O)cc4O)c(C)c3nc1-2 | inconclusive: 19.9 µM [inhibitor, partial curve]
CN1N=C(C(C)(C)C)CC1=O | inconclusive: 0.561 µM [inhibitor, full curve]
N[C@@H](COP(=O)(O)O)C(=O)O | inconclusive: 39.7 µM [inhibitor, partial curve]
O=[N+]([O-])c1ccc(CN2CCSCC2)cc1 | inconclusive: 17.7 µM [inhibitor, single point]
CCOC(=O)Cc1nnc(NC(=O)CSc2nnc3c4ccccc4n(C(C)C)c3n2)s1 | inconclusive: 17.7 µM [activator, single point]
CC(=O)c1c(N2CCN(Cc3ccc4c(c3)OCO4)CC2)nc(=S)n(-c2ccccc2)c1C | inconclusive: 44.6 µM [inhibitor, single point]
CN(CCC#N)C(=S)NC(=O)c1ccc(S(=O)(=O)N2CCOCC2)cc1 | active: 15.8 µM
O=c1cc(Cc2ccccc2)[nH]c(=S)[nH]1 | inconclusive: 15.8 µM [inhibitor, partial curve]
O=C1C([N+](=O)[O-])=C(O)c2cccc3cccc1c23 | active: 25.1 µM
O=C(N/N=C1\CCCc2oc(C(=O)O)cc21)c1ccccc1 | inactive
COc1ccc(CCc2cc(OC)cc(=O)o2)cc1 | inactive
O=C(c1cccnc1)N1CCN(Cc2ccccc2Br)CC1 | inconclusive: 25.1 µM [inhibitor, single point]
Cn1c(C(=O)NC2CCCCCC2)cc2c(=O)n(C)c3ccccc3c21 | inactive
